We go through 84 variants from the RNAGym collection of RNA variant scans (doi:10.7554/elife.90254).

The source gives no read counts; variants with many changes may rest on few reads.

The labels stand for the following.
B1: OR4K15 (parent)
chain: GUUAACGGUCAUAGGCCAUGGAAACUAGGAGCACCAUUUCGCUGCCAGUGAAGAAAUGAACAAAGAAAAUCUGGGCCAGGCAGGCAUCAAAAGAAAUAGUCUUGCGCUCAACCAGAAAGUCUGUAAUCAUUUUAAGGGUA

Variants of B1 are the subject of the data set. The experiment in a line: self-cleavage, relative activity (ratio to wild type); higher = more cleavage; in vitro, sequencing; the parent is a self-cleaving ribozyme.
Take A4G A67G A117G: the self-cleavage is 1.06.
With A5G A22G A52C U131C, the self-cleavage turned out to be 0.77.
As for A5C A67G U132C, the figure is 1.42; as for A4U A68G U124C, 1.26.
Turning to A5G A36C U57A A63G U87C U100C A116G, the self-cleavage worked out at 0.69.
U3C U9G A18U A23G: the self-cleavage came out at 1.08.
The value for A5G A13U A23G was 1.09; that for A4G A5G A55G U70A A92G A94G U132A was 0.95.
As for A5G A36G U39A A90G, the figure is 0.74.
A5G A59G A114U A118G: the self-cleavage is 0.1.
As for A4G C25A A27G U72G A89G, the figure is 0.42; as for A4G U26C U103A U108C A110G, 0.04.
The value for A4U G41U A78U U100C U124C A125G was 0.84.
The value for A4G A110C U127C was 0.31; that for A5G A54G A98G was 1.18.
On to A4G A24G A129G, for which the self-cleavage was determined as 0.66.
For U3G A33U A60G A90G U122C, the self-cleavage came out at 0.27.
A5G A55G A68G: the self-cleavage worked out at 0.51.
The value for U3C A52G A63G A78G U120A was 0.18; that for U3C U9C U12C U49C U70A was 1.13.
The value for A5G A24G A27U A67G was 1.02.
The value for A5G A22G A52G A67G was 1.29.
Take A5G A23G A52C A91U A118G A126G: the self-cleavage was 0.56.
As for U3C A56G G80A U122C, the self-cleavage worked out at 0.07.
As for U3C U72C A78G, the figure is 0.11; as for A5G A30G A33U A78C A95C, 0.26.
The value for A4G A51G A118U was 0.35.
As for A5G A11G A24U U132C, the figure is 1.16; as for A4G G15U A94G, 0.77.
Regarding U3C A27U C40U U100A U102C, the self-cleavage came to 0.7.
Take A5C U38C A68G U122A: the self-cleavage amounted to 0.87.
Consider U3C A55G A67G A94G A111G A114C U127A, for which the self-cleavage was determined as 0.01.
As for A4G G31A U87A, the figure is 0.94; as for U3C A94G A95G U122C A125U, 0.82; as for U3C U37C U38A U87A A89G A110G, 0.08.
The value for A4G A63G A64G U87C A117G was 2.16; that for A5G A18U A64G A98G was 0.74.
The value for A4G A18G A56G A94G A117U was 1.45.
On to U3C A23G U43C, for which the self-cleavage came out at 0.99.
As for U3C G20U A30U U39C A96U A118G U139C, the figure is 1.56; as for A5G A27G A64G A94G U100C U122C, 1.13; as for A4G A55G A59C U103C, 0.91.
As for A5G A23G A82U, the figure is 0.46; as for A5G A64G U139A, 0.94; as for U3G A116U U139A, 0.12.
For A5C U103C A114U, the self-cleavage came out at 0.15.
Turning to A5G A11G G74A, the self-cleavage stood at 0.26.
In the case of A5G A18G U26C A116G, the self-cleavage came out at 0.53.
The value for A4G C77U A114G was 1.27.
As for U3C A60G A110G A114G C128A G138A A140G, the figure is 0.01.
On to A5G A33G U130C, for which the self-cleavage came out at 0.33.
As for A5G A60G U103C, the figure is 0.94.
As for A5G A56G U103A U124A, the figure is 0.4; as for A5G A30G U49C, 1.34.
The value for A4G A51U A54U A62G A66U was 1.26.
In the case of A5G A33G A63G A95G, the self-cleavage came to 0.83.
Regarding A5G A27G A78U A86G, the self-cleavage was found to be 0.16.
With A4G U43C A59G, the self-cleavage worked out at 2.09.
As for A4G A23U A96G, the figure is 1.3; as for A5G A18G A54G U87C A111U U131C, 0.03.
Take A5C A23G C88A U122C: the self-cleavage is 1.8.
For the variant U3C C40U A63G A89G, the self-cleavage came out at 1.29.
For the variant U3C A30G A54G A56G, the self-cleavage came to 1.23.
As for U3C A66G A95G A134G, the figure is 2.03; as for A5G A24G A59U U108A, 0.04.
For the variant U3C A47G A140U, the self-cleavage was 0.65.
The value for A5G A51U C109U U122C was 0.37; that for A5G A60G U120C was 0.47.
With A5G A66U U100A A110G, the self-cleavage came out at 0.06.
As for A5C U49C A60G, the figure is 1.92; as for U3C U57C U122A, 1.09.
For the variant A4G G75A U132C, the self-cleavage worked out at 0.11.
Regarding A5G A13U A68C A126G, the self-cleavage was 0.47.
As for A4G G21U A22G A23G, the figure is 1.14; as for A4G U9C U19C A55U A89G, 1.43.
The value for A5G A54G A78C was 0.33; that for U3C A67G U133C was 0.87.
Turning to U3C A66G U108C, the self-cleavage was determined as 0.03.
Take A4G A11U U103C A134G: the self-cleavage was determined as 0.5.
The value for U3C A51G A54G A55U A64U was 1.61; that for A5G A23G U43A was 0.82.
The value for U3C A59G A114U was 0.06; that for A5G A22U C32U A33U U43A C61G A69U U124A was 0.63; that for A4G A60G U70C was 0.24.
